For some of these results: At least one peptide structure holds a part that was inferred or is arguable (an end, a ring closure or a residue). For some of these results: At least one compound was matched to its structure with a doubt left. Marks after values point to notes of the source that are not given here. *1 amine or outer side, *2 acyl side, *3 side chain or, on linkers, in order; H or OH if unused. Where a SMILES comes first, the peptide text is derived from it. Side-chain parts run from the residue outwards. The star is where a group is joined. C20 diacid = O=C(O)CCCCCCCCCCCCCCCCCCC(=O)*; C18 diacid = O=C(O)CCCCCCCCCCCCCCCCC(=O)*; γGlu = O=C(O)[C@H](CCC(=O)[*:2])N[*:1]; Trx = NC[C@H]1CC[C@H](C(=O)O)CC1; AEEA = NCCOCCOCC(=O)O
Legend:
Y4 receptor = biological target: T1, Y4 receptor (Homo sapiens, UniProt P50391); assay: Y4 receptor ACTOne based FLIPR assay (cAMP biosensor); type: cell-based; conditions: Table 2, PP analogues; ACTOne HEK-293 cells
T1 construct: host or cells: ACTOne HEK-293 cells
T1 sequence (P50391 whole entry): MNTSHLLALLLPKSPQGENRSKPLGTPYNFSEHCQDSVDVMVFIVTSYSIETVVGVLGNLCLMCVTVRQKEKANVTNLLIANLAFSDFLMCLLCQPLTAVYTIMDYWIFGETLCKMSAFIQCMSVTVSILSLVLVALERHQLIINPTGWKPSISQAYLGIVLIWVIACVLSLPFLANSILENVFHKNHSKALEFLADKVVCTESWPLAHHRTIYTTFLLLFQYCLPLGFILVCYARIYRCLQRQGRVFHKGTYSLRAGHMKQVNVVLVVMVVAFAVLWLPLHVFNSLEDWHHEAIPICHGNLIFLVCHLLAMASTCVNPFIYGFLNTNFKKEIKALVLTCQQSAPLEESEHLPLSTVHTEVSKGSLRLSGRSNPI
Text: (§1) ACTOne™ is an easily scaleable cAMP biosensor HTS platform for measurement of Gs and Gi coupled 7™ receptor signalling from BD Biosciences (San Jose, Calif.). The cells express a biosensor developed around a modified rat olfactory cyclic nucleotide gated (CNG) calcium channel—a fairly non-discriminatory ion channel that responds to cAMP and cGMP. The CNG has been engineered to be cAMP selective and thus function as a cAMP responsive biosensor that signals through calcium or membrane potential responsive dyes. Y2 or Y4 receptor expressing ACTOne HEK-293 cells are obtained from BD Biosciences. The cells are loaded with a calcium responsive dye that only distributes in the cytoplasm. Probenecid, an inhibitor of the organic anion transporter is added to prevent the dye from leaving the cell. A phosphodiesterase inhibitor is added to prevent formatted cAMP from being degraded. Isoproterenol (an β1/β2 agonist) is added to activate the adenylate cyclase. When an Y2 or Y4 receptor agonist is added, the adenylate cyclase is inactivated. The decreased calcium concentration in the cytoplasm is then detected as an increase in fluorescence. Together with the test substance, Isoproterenol at a concentration matching EC80, is added to all wells. • The cells are plated out in Greiner 384-well plates. […] The plates are covered with tinfoil to avoid light (the dye can be excited by the daylight, which results in higher baseline and variation). • The FLIPR (FLIPRtetra from Molecular Devices, CA, USA) adds 1 μl sample and 1 μl isoproterenol (0.05 μM final concentration) at the same time. • The fluorescence signal from the wells is measured 330 seconds after sample addition on the FLIPR.
(§2) Receptor potency of PYY and PP derivatives and analogues thereof was determined using the method “Measuring Y2 or Y4 Receptor Activity Using ACTOne Based FLIPR Assay” as described herein.

lean C57BL/6 mice = assay: Acute food intake in fasted lean mice (BioDAQ, fasting-induced refeeding); type: in vivo; conditions: mice, 1.0 μmol/kg s.c.; for Mean cumulative food intake [g]: Table 10, Study 6F
Experimental: Acute food intake in mice: Lean C57BL male mice are obtained from Charles River, Japan. They are maintained on a 12:12 light:dark cycle (lights off at 10:00 AM, lights on at 10:00 PM), fed pelleted D12450B rodent diet (Research Diets, Inc., New Brunswick, N.J.), and allowed water ad libitum. The mice arrive at 7-8 weeks of age and are acclimatized in the BioDAQ system a minimum of two weeks prior to study. On the day of study, mice are 9-12 weeks old. They are fasted overnight (20-24 h) with free access to water. The day of the study, mice are dosed with s.c. injection (dose volume=10 mL/kg), returned to their cage, and pre-weighed food is immediately placed in the cage. […] When the mice eat the weight reduction of the content of the food-tray is registered. Data is registered each time there is a change in the weight of the individual food-tray. Cumulative food intake is calculated by subtracting the food weight at each time point from the starting food weight.
Mice were administrated a single dose of the peptides (1 μmol/kg s.c.) 30 min before food return and cumulative food intake was measured over 24 h. […] One way ANOVA was carried for each time point out using the software Graph-Pad Prism, version 5.0. The statistical method used for the data in FIG. 1A was an unpaired t-test using the software Graph-Pad Prism, version 5.0. The statistical method used for the data in FIG. 1B and Table 4 was ANOVA, Dunnetts post hoc. Stars in FIGS. 1A and 1B indicate significance versus the vehicle group *) p<0.05, **) p<0.01, ***) p<0.001.
Studies were conducted to evaluate the acute effects of PP and PYY analogues on food intake compared to vehicle. Fasted lean C57BL/6 mice were administrated a single subcutaneous injection of vehicle or peptide approximately 30 min before food return and the cumulative food intake was measured subsequently. One way ANOVA was carried out for each time point using the software Graph-Pad Prism, version 5.0.

Y2 receptor = biological target: T2, Y2 receptor (Homo sapiens, UniProt P49146); assay: Y2 receptor ACTOne based FLIPR assay (cAMP biosensor); type: cell-based; conditions: Table 2, PP analogues; ACTOne HEK-293 cells
T2 construct: host or cells: ACTOne HEK-293 cells
T2 sequence (P49146 1-381): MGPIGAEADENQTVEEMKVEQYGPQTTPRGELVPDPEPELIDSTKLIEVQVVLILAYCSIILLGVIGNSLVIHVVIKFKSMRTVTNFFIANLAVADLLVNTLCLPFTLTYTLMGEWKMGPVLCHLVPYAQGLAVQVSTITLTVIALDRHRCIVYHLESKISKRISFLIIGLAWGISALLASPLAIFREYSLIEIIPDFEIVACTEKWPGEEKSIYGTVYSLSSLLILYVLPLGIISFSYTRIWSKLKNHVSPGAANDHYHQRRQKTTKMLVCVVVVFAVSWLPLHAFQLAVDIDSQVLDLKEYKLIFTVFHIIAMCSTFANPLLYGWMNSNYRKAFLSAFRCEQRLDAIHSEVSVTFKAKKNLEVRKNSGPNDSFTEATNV
Text: as §1, §2

CC[C@H](C)[C@H](NC(=O)[C@H](Cc1ccc(O)cc1)NC(=O)[C@H](CCCNC(=N)N)NC(=O)[C@H](CCCNC(=N)N)NC(=O)[C@H](CC(C)C)NC(=O)[C@H](CC(=O)O)NC(=O)[C@H](C)NC(=O)[C@H](C)NC(=O)[C@H](Cc1ccc(O)cc1)NC(=O)[C@H](CCC(N)=O)NC(=O)[C@H](C)NC(=O)[C@H](CCSC)NC(=O)[C@H](CCC(N)=O)NC(=O)[C@H](CCC(=O)O)NC(=O)[C@@H]1CCCN1C(=O)[C@H](CCCCNC(=O)COCCOCCNC(=O)COCCOCCNC(=O)CC[C@H](NC(=O)CCCCCCCCCCCCCCCCC(=O)O)C(=O)O)NC(=O)[C@H](C)NC(=O)[C@H](CC(N)=O)NC(=O)[C@H](CC(=O)O)NC(=O)CNC(=O)[C@@H]1CCCN1C(=O)[C@H](Cc1ccc(O)cc1)NC(=O)[C@@H](NC(=O)[C@@H]1CCCN1C(=O)[C@H](CCC(=O)O)NC(=O)[C@H](CC(C)C)NC(=O)[C@@H]1CCCN1C(=O)[C@H](C)N)C(C)C)C(=O)N[C@@H](CC(N)=O)C(=O)N[C@@H](CCSC)C(=O)N[C@@H](CC(C)C)C(=O)N[C@H](C(=O)N[C@@H](CCCNC(=N)N)C(=O)N1CCC[C@H]1C(=O)N[C@@H](CCCNC(=N)N)C(=O)N[C@@H](Cc1ccc(O)cc1)C(N)=O)[C@@H](C)O [SEQ ID NO: 24, N-epsilon13-[2-(2-{2-[2-(2-{2-[(S)-4-Carboxy-4-(17-carboxyheptadecanoylamino)butyrylamino]ethoxy}ethoxy)acetylamino]-ethoxy}ethoxy)acetyl][Lys13]hPP(1-36)] (H-APLEPVYPGDNAK([AEEA-AEEA-γGlu-C18 diacid])PEQMAQYAADLRRYINMLTRPRY-NH2; N-terminus and C-terminus assumed)
EC50 (Y4 receptor): 2 nM

CC[C@H](C)[C@H](NC(=O)[C@H](Cc1ccc(O)cc1)NC(=O)[C@H](CCCNC(=N)N)NC(=O)[C@H](CCCNC(=N)N)NC(=O)[C@H](CC(C)C)NC(=O)[C@H](CC(=O)O)NC(=O)[C@H](C)NC(=O)[C@H](C)NC(=O)[C@H](Cc1ccc(O)cc1)NC(=O)[C@H](CCC(N)=O)NC(=O)[C@H](C)NC(=O)[C@H](CC(C)C)NC(=O)[C@H](CCC(N)=O)NC(=O)[C@H](CCC(=O)O)NC(=O)[C@@H]1CCCN1C(=O)[C@@H](NC(=O)[C@H](C)NC(=O)[C@H](CC(N)=O)NC(=O)[C@H](CC(=O)O)NC(=O)CNC(=O)[C@@H]1CCCN1C(=O)[C@H](Cc1ccc(O)cc1)NC(=O)[C@@H](NC(=O)[C@@H]1CCCN1C(=O)[C@H](CCC(=O)O)NC(=O)[C@H](CC(C)C)NC(=O)[C@@H]1CCCN1C(=O)COCCOCCNC(=O)COCCOCCNC(=O)CC[C@H](NC(=O)CCCCCCCCCCCCCCCCC(=O)O)C(=O)O)C(C)C)[C@@H](C)O)C(=O)N[C@@H](CC(N)=O)C(=O)N[C@@H](CC(C)C)C(=O)N[C@@H](CC(C)C)C(=O)N[C@H](C(=O)N[C@@H](CCCNC(=N)N)C(=O)N1CCC[C@H]1C(=O)N[C@@H](CCCNC(=N)N)C(=O)N[C@@H](Cc1ccc(O)cc1)C(N)=O)[C@@H](C)O [SEQ ID NO: 55, N-alfa-[2-(2-{2-[2-(2-{2-[(S)-4-Carboxy-4-(17-carboxyheptadecanoylamino)butyrylamino]ethoxy}ethoxy)acetylamino]-ethoxy}ethoxy)acetyl][Leu17,Leu30]hPP2-36] ({C18 diacid-γGlu-AEEA-AEEA}-PLEPVYPGDNATPEQLAQYAADLRRYINLLTRPRY-NH2; C-terminus assumed)
period of statistical significant reduced cumulative food intake after injection (lean C57BL/6 mice; Study 6F): 1 to 48 h | Mean cumulative food intake [g] (lean C57BL/6 mice; 1 hour after injection, vehicle 0.38): 0.24* g | Mean cumulative food intake [g] (lean C57BL/6 mice; 2 hours after injection, vehicle 0.87): 0.49** g | Mean cumulative food intake [g] (lean C57BL/6 mice; 3 hours after injection, vehicle 1.23): 0.61*** g | Mean cumulative food intake [g] (lean C57BL/6 mice; 4 hours after injection, vehicle 1.53): 0.70*** g | Mean cumulative food intake [g] (lean C57BL/6 mice; 6 hours after injection, vehicle 2.05): 0.79*** g | Mean cumulative food intake [g] (lean C57BL/6 mice; 8 hours after injection, vehicle 2.54): 0.86*** g | Mean cumulative food intake [g] (lean C57BL/6 mice; 12 hours after injection, vehicle 3.21): 1.06*** g | Mean cumulative food intake [g] (lean C57BL/6 mice; 24 hours after injection, vehicle 3.91): 2.09*** g | Mean cumulative food intake [g] (lean C57BL/6 mice; 36 hours after injection, vehicle 7.29): 4.96*** g | Mean cumulative food intake [g] (lean C57BL/6 mice; 48 hours after injection, vehicle 7.45): 5.51*** g

CC[C@H](C)[C@H](NC(=O)[C@H](Cc1ccc(O)cc1)NC(=O)[C@H](CCCNC(=N)N)NC(=O)[C@H](CCCNC(=N)N)NC(=O)[C@H](CC(C)C)NC(=O)[C@H](CC(=O)O)NC(=O)[C@H](C)NC(=O)[C@H](C)NC(=O)[C@H](Cc1ccc(O)cc1)NC(=O)[C@H](CCC(N)=O)NC(=O)[C@H](C)NC(=O)[C@H](CC(C)C)NC(=O)[C@H](CCC(N)=O)NC(=O)[C@H](CCC(=O)O)NC(=O)[C@@H]1CCCN1C(=O)[C@H](CCCCNC(=O)COCCOCCNC(=O)COCCOCCNC(=O)CC[C@H](NC(=O)[C@H]1CC[C@H](CNC(=O)CCCCCCCCCCCCCCCCCCC(=O)O)CC1)C(=O)O)NC(=O)[C@H](C)NC(=O)[C@H](CC(N)=O)NC(=O)[C@H](CC(=O)O)NC(=O)CNC(=O)[C@@H]1CCCN1C(=O)[C@H](Cc1ccc(O)cc1)NC(=O)[C@@H](NC(=O)[C@@H]1CCCN1C(=O)[C@H](CCC(=O)O)NC(=O)[C@H](CC(C)C)NC(=O)[C@@H]1CCCN1C(=O)[C@H](C)N)C(C)C)C(=O)N[C@@H](CC(N)=O)C(=O)N[C@@H](CC(C)C)C(=O)N[C@@H](CC(C)C)C(=O)N[C@H](C(=O)N[C@@H](CCCNC(=N)N)C(=O)N[C@@H](CCC(N)=O)C(=O)N[C@@H](CCCNC(=N)N)C(=O)N[C@@H](Cc1ccc(O)cc1)C(=O)O)[C@@H](C)O [SEQ ID NO: 74, N-epsilon13-[2-(2-{2-[2-(2-{2-[(S)-4-Carboxy-4-({trans-4-[(19-carboxynonadecanoylamino)methyl]cyclohexanecarbonyl}amino)butyrylamino]-ethoxy}ethoxy)acetylamino]ethoxy}ethoxy)acetyl][Leu17,Lys13,Gln34]hPP1-36 acid] (H-APLEPVYPGDNAK([AEEA-AEEA-γGlu-Trx-C20 diacid])PEQLAQYAADLRRYINLLTRQRY-OH; N-terminus assumed)
EC50 (Y2 receptor): 29 nM

Source: patent US20110275559A1, “Long-Acting Y2 and/or Y4 Receptor Agonists” (Novo Nordisk A/S, priority 2008, published 2011)
